Some of the results follow.
Each sequence was assayed against T1, OsWOX13 (Oryza sativa, UniProt Q5QMM3 1-267) (assay: protein-binding microarray (RPBM); PBS, 2% BSA, 51.3 ng/ul salmon testes DNA, 50 uM zinc acetate, 200 nM TF, 25 C, 1 h; high values mean tight binding). Conditions: protein: recombinant; tags: N-terminal polyhistidine and DsRed monomer fusion (pET32a); label: CyDye5-dUTP incorporated in the synthesized complementary strand; 3' TTTTT single-stranded linker to array surface; dsDNA, one strand shown.
T1 sequence: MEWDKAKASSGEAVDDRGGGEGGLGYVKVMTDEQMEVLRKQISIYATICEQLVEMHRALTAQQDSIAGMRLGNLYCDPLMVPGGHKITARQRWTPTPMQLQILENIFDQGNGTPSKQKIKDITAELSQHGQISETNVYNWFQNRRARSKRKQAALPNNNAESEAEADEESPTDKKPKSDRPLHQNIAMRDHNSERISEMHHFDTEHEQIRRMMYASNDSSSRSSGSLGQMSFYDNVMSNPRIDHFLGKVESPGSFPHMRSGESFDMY
How it was run: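 The binding signal for each feature is its fluorescence intensity in arbitrary units. An Axon 4000B scanner was used to read a custom Agilent array that had been made double-stranded with Cy5-dUTP primer extension, blocked with 2% BSA, incubated at 25 °C for 1 h with 200 nM protein in PBS, 2% BSA, salmon testes DNA and 50 µM zinc acetate, and washed. The protein was an N-terminal polyhistidine–DsRed transcription factor fusion from E. coli BL21-CodonPlus, purified on Ni–NTA.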

Sequence | binding signal
CGTTTCTTATAATATGGTAATTACCGTATTCTAAATATGTCGGAGTCACCTAGTGCAG | 4030 fluorescence intensity (a.u.)
AGGAAGATGATTGAATGTTGATTTGTAGAATTTAAAGAATCGGAGTCACCTAGTGCAG | 45000 fluorescence intensity (a.u.)
ATGTAAATTATCTTAGCTTGAAGGAGATGTATATTATGTACGGAGTCACCTAGTGCAG | 15100 fluorescence intensity (a.u.)
CTATAATTTAAACATGTAAAGTTTACGTGTATATAAATTTCGGAGTCACCTAGTGCAG | 8480 fluorescence intensity (a.u.)
GAACAAATTTTGATAACAAGATAACCATTACGCTTTCGCGCGGAGTCACCTAGTGCAG | 4980 fluorescence intensity (a.u.)
TCATTGTAATTGGGCCTATCTTTGGTTGGGCCTGGAGCCCCGGAGTCACCTAGTGCAG | 12700 fluorescence intensity (a.u.)
TTGCCCATTAATTTACCCAAGTATCCATGCGGACCATGCCCGGAGTCACCTAGTGCAG | 5180 fluorescence intensity (a.u.)
TATTATTGACAGAAATAGGAGATTTGTCCCATCTTATTTTCGGAGTCACCTAGTGCAG | 22600 fluorescence intensity (a.u.)
TTCTGAAATTAGGCAATTGTTTATGGGGATCTCATCCTTTCGGAGTCACCTAGTGCAG | 3940 fluorescence intensity (a.u.)
AAACTTGATGATTGTTCTGTATTCTTATTTCTGAACAAAACGGAGTCACCTAGTGCAG | 9930 fluorescence intensity (a.u.)
GGATGAAATTAGCCCATCAGCAATTACGTGTAGGCCGTAGCGGAGTCACCTAGTGCAG | 3690 fluorescence intensity (a.u.)
GCTCTAATAATTGAATAATTTGATTTGTTTTATTTAAATCCGGAGTCACCTAGTGCAG | 30100 fluorescence intensity (a.u.)
TCTTATCATTAGATTGGATTAGTATGAAGATAGCAGTTATCGGAGTCACCTAGTGCAG | 16700 fluorescence intensity (a.u.)
GCACTATCAATTCTTCTTGATTCTTCTTTGTATTTGGATTCGGAGTCACCTAGTGCAG | 3370 fluorescence intensity (a.u.)
TGGGCAGCAGCTTGATTTGATTGCTTCATTTATCAAGTTGCGGAGTCACCTAGTGCAG | 13600 fluorescence intensity (a.u.)
TGCTAATCAGCCATTAGCAGCCAAAATAGCACATCAGCTACGGAGTCACCTAGTGCAG | 4580 fluorescence intensity (a.u.)
TTATTAAATTTTGATCAAACTTCAATGTTTCAAAATTGAACGGAGTCACCTAGTGCAG | 7080 fluorescence intensity (a.u.)
CCGGTCGGATCTAATTAATTTACCTCCTCCACCTCCTCCTCGGAGTCACCTAGTGCAG | 7380 fluorescence intensity (a.u.)
AATGACATGGCAATCTCACCTTGGAGGTTTGTGCTTTGAACGGAGTCACCTAGTGCAG | 4460 fluorescence intensity (a.u.)
GATGATAAATTAAGTCACAATAAATAAATAATAATAATATCGGAGTCACCTAGTGCAG | 5820 fluorescence intensity (a.u.)
AACCAGCTCGTCAATTAATTATTGTGATTACGTTTCATCTCGGAGTCACCTAGTGCAG | 42400 fluorescence intensity (a.u.)

Sequence | binding signal
CTCAAATACAAATTTGTATTTCCAAAGACGAACGAACTTACGGAGTCACCTAGTGCAG | 3190 fluorescence intensity (a.u.)
TAAAGTTGAAAGTTTGATTGAAATTGAAATGATGTAACGGCGGAGTCACCTAGTGCAG | 33600 fluorescence intensity (a.u.)
CATGAAAATTAATTTAGATAGAAGGTTATGATTACAATATCGGAGTCACCTAGTGCAG | 13800 fluorescence intensity (a.u.)
TTCCTTGTCTCCTCAATCTTCTCTTTTGATGAATACGAGCCGGAGTCACCTAGTGCAG | 3880 fluorescence intensity (a.u.)
GATGAGAGATTGAGAGGAGGAATTCAATGTGGGCTTCTCCCGGAGTCACCTAGTGCAG | 6460 fluorescence intensity (a.u.)
CCTGCAGATCCTGATTGGAATTTGGACCTTCTCCTCCTCCCGGAGTCACCTAGTGCAG | 27100 fluorescence intensity (a.u.)
GTAGTTGATAATAATGTATTAATTAATGGTCAAAGTAAAGCGGAGTCACCTAGTGCAG | 15500 fluorescence intensity (a.u.)
GTGATGAGTGATGACCCGGAGAATGAGAGAGGCGACTGTGCGGAGTCACCTAGTGCAG | 3800 fluorescence intensity (a.u.)
AGCTAATTAACACCCTTTTAAGTGTTCATAAACAAATACACGGAGTCACCTAGTGCAG | 15100 fluorescence intensity (a.u.)
AGACGCATCTCCTCAATCATGCATCAACGTGCGTCATCTGCGGAGTCACCTAGTGCAG | 3790 fluorescence intensity (a.u.)
ATTAAATAAAATAAATCACCGCATCATTGCTTTTCTTTCCCGGAGTCACCTAGTGCAG | 3740 fluorescence intensity (a.u.)
GTTTGATTTCTAGTAGTGGGTGTTTATGTTGTAGCTTGTACGGAGTCACCTAGTGCAG | 14500 fluorescence intensity (a.u.)
GCTTAATCACATTGTTGCGCCCCTTCTTATCCTCTTCTTGCGGAGTCACCTAGTGCAG | 4600 fluorescence intensity (a.u.)
TAAAATTTGACAGATATAATTACAGTACAATCGTAGTGTACGGAGTCACCTAGTGCAG | 43500 fluorescence intensity (a.u.)
AGCTTGATGGGGAGGCTTCTCGATGGCGGCCGTCGCCCGTCGGAGTCACCTAGTGCAG | 4520 fluorescence intensity (a.u.)
CTATATAATTAAGGTAGGTAGATAGAGGAGAGGGTGGGCGCGGAGTCACCTAGTGCAG | 4680 fluorescence intensity (a.u.)
ACCGTACTTTCAATCACTGGAGAATGAGGAATTTAATTCACGGAGTCACCTAGTGCAG | 3540 fluorescence intensity (a.u.)
AAGCCTAATTAATCCGTCATTAGCAACTGTTTACTCTAGCCGGAGTCACCTAGTGCAG | 27900 fluorescence intensity (a.u.)
AATTAATTAGTCTCAATAGATTCGTCTCGCGAATTAGTCTCGGAGTCACCTAGTGCAG | 29300 fluorescence intensity (a.u.)
AATCTATATTGTAAATTAATGGTACTCTACAAATTGTACTCGGAGTCACCTAGTGCAG | 4180 fluorescence intensity (a.u.)
CAATGCTTGCTTGATTGGGAGCGCGTCGTCGAGGGCGTCGCGGAGTCACCTAGTGCAG | 14400 fluorescence intensity (a.u.)

Sequence | binding signal
ATAGGGAAATTGGAAAGGGATTGAGCGTGAGGCGGATCCACGGAGTCACCTAGTGCAG | 4440 fluorescence intensity (a.u.)
CGAACTTTTGTCAATTAATGCCAATATTAGCACACGTGGTCGGAGTCACCTAGTGCAG | 13600 fluorescence intensity (a.u.)
AGTAATAACATTTTCAATCCAAGACAAATTTATTATGAAACGGAGTCACCTAGTGCAG | 3680 fluorescence intensity (a.u.)
AATCCAATCACCCAATCCATTCGTCGCCGCCGCCGCCGCCCGGAGTCACCTAGTGCAG | 22000 fluorescence intensity (a.u.)
ATGACTTGACGAGGTAAATAAAATTGGACCGGGCAGCAAACGGAGTCACCTAGTGCAG | 3900 fluorescence intensity (a.u.)
TTGAAGTTATCATAATTTGAAATTCAAATTCAAATTGTGCCGGAGTCACCTAGTGCAG | 4770 fluorescence intensity (a.u.)
ATGAAAATTTGATGACATCAATTATTAAAATTTGTATTCACGGAGTCACCTAGTGCAG | 26400 fluorescence intensity (a.u.)
ATGAGATGACTGATTTGCATGTGTTTAGGCACTGTAGTCACGGAGTCACCTAGTGCAG | 30100 fluorescence intensity (a.u.)
TGTACGGTCTACCTAATTAATTTGTAGCACAAGAAAACTGCGGAGTCACCTAGTGCAG | 8070 fluorescence intensity (a.u.)
CGTAATGAAATAAATTTAGTGCTATACGTATTGTTATATACGGAGTCACCTAGTGCAG | 13800 fluorescence intensity (a.u.)
ACTAATTAAGAATTGTACTTCAGTTTTCTATAATATTGTCCGGAGTCACCTAGTGCAG | 21600 fluorescence intensity (a.u.)
AATGATTTTGATTCGGAAGAAACAAACGAAATGACATTTTCGGAGTCACCTAGTGCAG | 6950 fluorescence intensity (a.u.)
ATGACGATGATGGACTTGCTCGTCGTCTCGATGAAGAGCTCGGAGTCACCTAGTGCAG | 4400 fluorescence intensity (a.u.)
TTTTGCACGTAATTGGCATGCCAGCTTGTATAAACCATATCGGAGTCACCTAGTGCAG | 7600 fluorescence intensity (a.u.)
ACAAATTATTGGGCCTCCATGCCTCTTAGCCCTCGACGTCCGGAGTCACCTAGTGCAG | 6370 fluorescence intensity (a.u.)
GGTAACTGGGAGGAAATTCCTCATTTACTTCGCCGAAACACGGAGTCACCTAGTGCAG | 5820 fluorescence intensity (a.u.)
GATGGATGGTCTGCCTAATTTCAATTTGTCTCCCAAACTACGGAGTCACCTAGTGCAG | 3270 fluorescence intensity (a.u.)
GGCAAACATATACTCCCAATCAAACACAAGCCATCAGGCCCGGAGTCACCTAGTGCAG | 5730 fluorescence intensity (a.u.)
CGCGCGTGTGATTGGCTGGCTTGGTCAGGGTCAACGTTGGCGGAGTCACCTAGTGCAG | 48900 fluorescence intensity (a.u.)
CAAAGAGGCTAATTGAAGGATTGGAACATGACCTGGAAAACGGAGTCACCTAGTGCAG | 16000 fluorescence intensity (a.u.)
TATGAATAATATCCTAATCATTGGGTTAGGAATAGCCTTACGGAGTCACCTAGTGCAG | 3490 fluorescence intensity (a.u.)

Sequence | binding signal
GATTAATTAGGCTTAATAAATTCGTCTCGAAGTTTACAGGCGGAGTCACCTAGTGCAG | 45200 fluorescence intensity (a.u.)
AATTAATATTTAATTAATTATATACTAATGACTCTTCTTGCGGAGTCACCTAGTGCAG | 32500 fluorescence intensity (a.u.)
ACATGATTGATACGTTACGCAAATAAACTACAATACTTTACGGAGTCACCTAGTGCAG | 44900 fluorescence intensity (a.u.)
ATTAAATATAATCAGTTTTAATAAGGTGACACCATGGCAGCGGAGTCACCTAGTGCAG | 6380 fluorescence intensity (a.u.)
CATGGTCAATCTACTCGTTAACGTACATTCACGGTTATTTCGGAGTCACCTAGTGCAG | 9160 fluorescence intensity (a.u.)
CATGTCATCAAATTTGTTTGAATGGCATCTCATTTATTGACGGAGTCACCTAGTGCAG | 3240 fluorescence intensity (a.u.)
GTCATTGTCCAAAGCGTCAATTAAAATGAAACTGGAGGTACGGAGTCACCTAGTGCAG | 3150 fluorescence intensity (a.u.)
TCAATCACAGTTAATTAATCCTTAAACAGCAAAGATAATCCGGAGTCACCTAGTGCAG | 28700 fluorescence intensity (a.u.)
TCTATCTATCTATCTATCTATTATCTATCTTCTATTATATCGGAGTCACCTAGTGCAG | 11200 fluorescence intensity (a.u.)
TTAAATTGACTATAGATGATTTGGAACTAGTGGTGAGCTACGGAGTCACCTAGTGCAG | 44000 fluorescence intensity (a.u.)
CAAAATATACTAATTTCTTCAAGCAAAGGTCCAGCCCATCCGGAGTCACCTAGTGCAG | 3240 fluorescence intensity (a.u.)
CTTGCGCGCGTGATTTGCCATTGCCACATGTCCGATTGGGCGGAGTCACCTAGTGCAG | 3720 fluorescence intensity (a.u.)
GTAGATTGGGCCTCCAGCTAGAAAGCATAAAGTGGGCCTACGGAGTCACCTAGTGCAG | 10700 fluorescence intensity (a.u.)
TGTCCAGCCAATTAACTAATTAAGCCAATCAATGCAATGGCGGAGTCACCTAGTGCAG | 35800 fluorescence intensity (a.u.)
GATATTGACGGATTAATTGAACCTTTCATTTGTGGCGCATCGGAGTCACCTAGTGCAG | 41400 fluorescence intensity (a.u.)
GATGGGAGGGGTGGTGGTTGAATACGCGTGACAGTAGGGGCGGAGTCACCTAGTGCAG | 4530 fluorescence intensity (a.u.)
ATAACTAATCATGTGGTCATGTGCACTAGAACCAGCACCGCGGAGTCACCTAGTGCAG | 6800 fluorescence intensity (a.u.)
ACTTGACTAATCATAATTCCAAATTGTCTAGAAATTCCATCGGAGTCACCTAGTGCAG | 21500 fluorescence intensity (a.u.)
GAGCTTAATTTACTAATGTACAAGAACAAATACTCCATATCGGAGTCACCTAGTGCAG | 7910 fluorescence intensity (a.u.)
TTCCGTTGATTATCACGGGAATAGCTATCCATTTTCTGAACGGAGTCACCTAGTGCAG | 21500 fluorescence intensity (a.u.)
TCGATTAAATTGATGTGCAAAGTATTGTTAACAGTAAGTTCGGAGTCACCTAGTGCAG | 31300 fluorescence intensity (a.u.)

Reference: publication PMC7819943, “Rice protein-binding microarrays: a tool to detect cis-acting elements near promoter regions in rice”
